This is one part of the list.
What follows are sequences tested against T1, OsWOX13 (Oryza sativa, UniProt Q5QMM3 1-267) (assay: protein-binding microarray (RPBM); PBS, 2% BSA, 51.3 ng/ul salmon testes DNA, 50 uM zinc acetate, 200 nM TF, 25 C, 1 h; high values mean tight binding). Settings: protein: recombinant; tags: N-terminal polyhistidine and DsRed monomer fusion (pET32a); label: CyDye5-dUTP incorporated in the synthesized complementary strand; 3' TTTTT single-stranded linker to array surface; dsDNA, one strand shown.
T1 sequence: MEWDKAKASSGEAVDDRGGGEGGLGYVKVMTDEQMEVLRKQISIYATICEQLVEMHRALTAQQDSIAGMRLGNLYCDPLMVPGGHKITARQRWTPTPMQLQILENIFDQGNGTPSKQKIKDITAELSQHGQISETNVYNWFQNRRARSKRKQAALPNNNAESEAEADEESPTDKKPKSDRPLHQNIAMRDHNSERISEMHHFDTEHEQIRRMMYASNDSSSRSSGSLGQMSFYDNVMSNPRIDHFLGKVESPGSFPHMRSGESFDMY
In short: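 Binding signal here means per-feature fluorescence intensity in arbitrary units. The values were read on an Axon 4000B scanner after a custom Agilent array, double-stranded by primer extension with Cy5-dUTP, was incubated with 200 nM protein at 25 °C for 1 h in PBS with 2% BSA, salmon testes DNA and 50 µM zinc acetate, then washed. The proteins were transcription factors with an N-terminal polyhistidine tag and DsRed, expressed in E. coli BL21-CodonPlus and purified on Ni–NTA.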
For “TTACTTTAATAATATAATAGATTAGGCATATAATACATCCCGGAGTCACCTAGTGCAG”, the binding signal was 7140 fluorescence intensity (a.u.).
With “GCCTAATTGACCCTTTCATAAACCTCAGCGCCATTTTAGCCGGAGTCACCTAGTGCAG” the binding signal was 32700 fluorescence intensity (a.u.).
“ATTGATTATACAATTATTTTAATCTACTTGTTAAGTTCATCGGAGTCACCTAGTGCAG” was tested, and the binding signal was 39400 fluorescence intensity (a.u.).
For “TGGAAATTAATAGACATTTGTGCTATGAACAACATCATTGCGGAGTCACCTAGTGCAG”, the binding signal was 22300 fluorescence intensity (a.u.).
“TATTTTCTTTAATTAGCATCCATGTGTCGTGCTCAATGAACGGAGTCACCTAGTGCAG” was tested, and the binding signal was 4170 fluorescence intensity (a.u.).
With “TTTAATTAATCACGCGCTAATAGACTGCTCCGTTTTCCGTCGGAGTCACCTAGTGCAG” the binding signal was 55800 fluorescence intensity (a.u.).
In the case of “AGTATGACAGACGTGTTGGGCTACGACTCTAAATGGGCCACGGAGTCACCTAGTGCAG”, the binding signal is reported as 3630 fluorescence intensity (a.u.).
For “TGGAAATTATAGCTTATAGACAAAACTGAGGGTGACAATACGGAGTCACCTAGTGCAG”, the binding signal was 4890 fluorescence intensity (a.u.).
For “ATTTCGTGATATGATGACTTAAATTTGTTGTTATGTGATACGGAGTCACCTAGTGCAG”, the binding signal was 7940 fluorescence intensity (a.u.).
In the case of “TGCCGTTTGATTTGTTTCTTTTCATACGAGGTGATCATATCGGAGTCACCTAGTGCAG”, the binding signal is reported as 10500 fluorescence intensity (a.u.).
With “ACATCTAGTTGATTTATTGTTTATGAGACGGAAGGAAAACCGGAGTCACCTAGTGCAG” the binding signal was 5100 fluorescence intensity (a.u.).
“GTAATTGCTGTCAAGGCAGGGGAAGTCATTCCAATCGACGCGGAGTCACCTAGTGCAG” was tested, and the binding signal was 7780 fluorescence intensity (a.u.).
For “ATCCATCCAAATTAATCATTAATCAACAAGAGATGAGGAACGGAGTCACCTAGTGCAG”, the binding signal was 11300 fluorescence intensity (a.u.).
For “GTTCTAATTTCAACTAAACTTCTAATTTTAGCGTGAACTACGGAGTCACCTAGTGCAG”, the binding signal was 10300 fluorescence intensity (a.u.).
“TATCCCAATCAGCGGAGACAAACCACGGTGGAGTCGCCAGCGGAGTCACCTAGTGCAG” was tested, and the binding signal was 10500 fluorescence intensity (a.u.).
“AATCTAATTGGTTGAAAATGAATGAGTTGTTTGCATTAGACGGAGTCACCTAGTGCAG” was tested, and the binding signal was 22000 fluorescence intensity (a.u.).
“GTCCTAATATTTGATAGTACTAATTTTCTCCTCAGTTCATCGGAGTCACCTAGTGCAG” was tested, and the binding signal was 3350 fluorescence intensity (a.u.).
In the case of “CGACATTATAATTTAGATTAGTATATTATGGTTTTGACTTCGGAGTCACCTAGTGCAG”, the binding signal is reported as 28500 fluorescence intensity (a.u.).
With “TATATGATCATTTGGTGGTTTGATTTGTGGCATTATCATACGGAGTCACCTAGTGCAG” the binding signal was 7620 fluorescence intensity (a.u.).
“ACCAAACAAGCTGTTAATTAGTGACGCAAACCATCAACCACGGAGTCACCTAGTGCAG” was tested, and the binding signal was 21700 fluorescence intensity (a.u.).
In the case of “ACAAAATTGAAATTGGAATTCTGATCAGCCACCAAAACAGCGGAGTCACCTAGTGCAG”, the binding signal is reported as 39300 fluorescence intensity (a.u.).
In the case of “TTAGTAATAACTGGTTCTCTGTCAGTCAAGGTATTGCAGACGGAGTCACCTAGTGCAG”, the binding signal is reported as 3200 fluorescence intensity (a.u.).
With “TTAATTCTATCTAGTAGTAGAGTTAGTTATTTATATATTACGGAGTCACCTAGTGCAG” the binding signal was 5310 fluorescence intensity (a.u.).
“ATAATAAGATTAAAATAACATTTACCCGTTGCAAAGCACGCGGAGTCACCTAGTGCAG” was tested, and the binding signal was 3610 fluorescence intensity (a.u.).
In the case of “CTAAGAGCTAATTGTACAACTAATAAAATCCAAGTGCGCTCGGAGTCACCTAGTGCAG”, the binding signal is reported as 3420 fluorescence intensity (a.u.).
With “ATGCTTAATAGAAAATCTTAAATAAATTTATCCTAAAATCCGGAGTCACCTAGTGCAG” the binding signal was 7750 fluorescence intensity (a.u.).
“TTTATCAAATTATCGTTTGTGTACTCTAGCTGGTCCTGGACGGAGTCACCTAGTGCAG” was tested, and the binding signal was 3870 fluorescence intensity (a.u.).
In the case of “TTAAATTAATGTATTACTAAATGGTTTGTAATAGAATATTCGGAGTCACCTAGTGCAG”, the binding signal is reported as 12700 fluorescence intensity (a.u.).
With “TGAACTTCTGATTGACAAACCAAAGGAAGAAGTTGCAAGTCGGAGTCACCTAGTGCAG” the binding signal was 28900 fluorescence intensity (a.u.).
In the case of “AATAATTTTCTCATTTTCTTTAACAGAAGATGACAATGCACGGAGTCACCTAGTGCAG”, the binding signal is reported as 19100 fluorescence intensity (a.u.).
In the case of “GTACTCGGCACCAATCACGTTGGCACCGGCCTCCTTCGCACGGAGTCACCTAGTGCAG”, the binding signal is reported as 3210 fluorescence intensity (a.u.).
With “ACTATGACATTATTTAAACAAGTTTTATACTGAGACACTTCGGAGTCACCTAGTGCAG” the binding signal was 5830 fluorescence intensity (a.u.).
“TGCTAACTTGAGATGAATGTCGAACTCCTAATTGCAGCTCCGGAGTCACCTAGTGCAG” was tested, and the binding signal was 3470 fluorescence intensity (a.u.).
For “TCCTATAGAAATTGATGAGGATCTAAGAATACCTTCACCTCGGAGTCACCTAGTGCAG”, the binding signal was 6770 fluorescence intensity (a.u.).
With “CTTAAAATTTGCAACAATAAAATTAACTGTATCTGAACATCGGAGTCACCTAGTGCAG” the binding signal was 3670 fluorescence intensity (a.u.).
“GCCCACCGCCAATCACTCATCCAAGTATCCAACAAAGAACCGGAGTCACCTAGTGCAG” was tested, and the binding signal was 4480 fluorescence intensity (a.u.).
With “AGGTTAATTAATAATATAAGGCGTGTGTATATATTGGTGTCGGAGTCACCTAGTGCAG” the binding signal was 42300 fluorescence intensity (a.u.).
In the case of “TGCTTTAATTATGAGAAAGAAACCAATGGCTGAACCATAGCGGAGTCACCTAGTGCAG”, the binding signal is reported as 11000 fluorescence intensity (a.u.).
“GTAGTTGATCAGATTGAGATAGCAGATCGATAAAATACAGCGGAGTCACCTAGTGCAG” was tested, and the binding signal was 4020 fluorescence intensity (a.u.).
With “ATCGGAGACTGACTGAGTGAAGGTTGGTTGGTTCACACTTCGGAGTCACCTAGTGCAG” the binding signal was 4540 fluorescence intensity (a.u.).
“TATAATTGATTATTGTGACCTCATGATAGAGACAAGACCACGGAGTCACCTAGTGCAG” was tested, and the binding signal was 53500 fluorescence intensity (a.u.).
In the case of “AGCTTAATTACCATGAATACAATGATACAGCCGGCTTAATCGGAGTCACCTAGTGCAG”, the binding signal is reported as 17600 fluorescence intensity (a.u.).
